Data from PubChem BioAssay AID1963576 (National Center for Advancing Translational Sciences (NCATS), 2024).
The campaign covered roughly 46,000 compounds. About 60 (0.1%) were called active. Roughly 3% stayed inconclusive and do not appear here. Calls come from the whole dose curve; as a rule, active = well fitted inhibition curve with a large enough effect; inconclusive = small, poorly fitted or top-dose-only effect; inactive = no such curve, though single readings can be large or run the other way. Some of the results follow.

Assay: Primary qHTS assay for Inhibitors of ovarian cancer metastasis using an organotypic tumor microenvironment (TME) model.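 For activity change, negative = inhibition: plate controls were DMSO wells for no effect and tomatine positive control wells for full effect.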 Note: nearly all actives have a fitted effect of over 65% in size.
Settings: SKOV3ip1-GFP adhesion/invasion on 3D omental model, fluorescence; series mostly up to 45.8 µM; activity change, negative = inhibition: at the top concentration
In short: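 Primary human omental fibroblast/mesothelial 3D culture pre-formed 48 h. SKOV3ip1-GFP cells added with compounds (0.36-46 umol/L), incubated 2 h RT/16 h 37 C, fixed; GFP cells quantified at 488/509 nm.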

SMILES	activity change, negative = inhibition	outcome
Cn1c(CNC(=O)CSc2nc(-c3ccccc3F)nc3cc(=O)[nH]n23)nc2ccccc21	inactive: -4.45%	–
CC(C)c1ccc(-c2noc(SCC(=O)N3CCN(c4ccccc4F)CC3)n2)cc1	inactive: 2.71%	–
O=C(NCc1cccs1)c1ccc2c(c1)sc1nc(-c3ccccc3)cn12	inactive: -20.1%	–
COc1ccc2c(c1)c(=O)c(C(=O)c1ccc(F)cc1)cn2CC(=O)Nc1ccc2c(c1)OCCO2	inactive: 40%	–
COc1ccc(-c2cn3cccnc3n2)cc1NC(=O)c1ccccc1C(F)(F)F	inactive: -0.566%	–
COc1cc(CN(C(=O)c2ccccc2)c2ccccn2)cc(OC)c1OC	inactive: 3.24%	–
Cc1cc2nn(-c3ccc(F)cc3)nc2cc1NC(=O)c1ccc(C(C)(C)C)cc1	inactive: -5.97%	–
CCCOc1ccc(C2C(=O)N(C3CCCCCC3)CC(=O)N2C(C)C)cc1OC (centres undefined)	inactive: 18.7%	–
COc1ccc(-c2oc3ncn4nc(-c5ccccc5OC)nc4c3c2-c2ccc(OC)cc2)cc1	inactive: -8.97%	–
COc1cccc(CNC(=O)Nc2cn(CC(C)C)c(=O)c3ccccc23)c1	–	inactive
OCCN1CCN(c2ncnc3c2cnn3-c2cccc(Cl)c2)CC1	inactive: -4.63%	–
COc1cc(OC)cc(-n2c(=O)c3sccc3n(Cc3cc(=O)n4c(C)cccc4n3)c2=O)c1	inactive: 4.14%	–
Cc1ccc2c(CC(=O)Nc3nnc(C(C)C)s3)coc2c1C	inactive: -6.1%	–
Cc1nc(N2CCCC2)ncc1C(=O)Nc1ccc(OC(F)(F)F)cc1	inactive: -15.9%	–
COc1ccc(OCc2ccc(-c3nc(C#N)c(NCc4ccc(F)cc4)o3)o2)cc1	inactive: -7.35%	–
CCOC(=O)c1cc(-c2ccc(F)cc2)n(CCC(=O)Nc2nc3cc(C)c(C)cc3s2)c1C	inactive: -1.34%	–
CCOc1ccc(-n2c(-c3ccc(Br)cc3)cc3c2CC(C)(C)CC3=O)cc1	inactive: -5.16%	–
Cc1nnc2c3ccccc3nc(Nc3ccc(F)cc3Cl)n12	inactive: 7.61%	–
Cc1cccc(N(C)S(=O)(=O)c2nnc(NC(=O)C(C)(C)C)s2)c1	inactive: -1.73%	–
Cc1ccc(Cl)cc1NC(=O)Cn1nnc2sc3c(c2c1=O)CCC(C(C)(C)C)C3 (centres undefined)	inactive: -1.78%	–
COc1ccc(OC)c(CNC(=O)c2cc3c(=O)oc4ccc(C)cc4c3s2)c1	–	inactive
COc1ccc(N(Cc2cc3cc(OC)ccc3[nH]c2=O)C(=O)c2cccc(Cl)c2)cc1	inactive: 5.23%	–
O=C(c1ccc2c(c1)N(Cc1ccccc1F)C(=O)c1ccccc1S2=O)N1CCC(Cc2ccccc2)CC1 (centres undefined)	–	inactive
Brc1ccc(CN2CCc3nc(Nc4ccccc4)ncc3C2)s1	inactive: -10.1%	–

SMILES	activity change, negative = inhibition	outcome
CCc1nn(CC(=O)NCC(C)c2ccccc2)c(=O)c2cc3occc3n12 (centres undefined)	–	inactive
Cc1ccc(-n2c(=O)c3ccc(C(=O)NCc4ccccc4Cl)cc3n(CC(=O)Nc3cccc(Cl)c3)c2=O)cc1	inactive: -6.93%	–
Cc1nc2cc(C(=O)NCCC3=CCCCC3)ccc2n1-c1ccc(Br)cc1	inactive: 1.62%	–
Cc1cc(C)c(NC(=O)CCN2C(=O)c3ccccc3Sc3ncccc32)c(C)c1	inactive: -21.1%	–
CCOc1ccc(C(=O)NCc2nnnn2-c2ccc(C)c(C)c2)cc1OCC	inactive: 6.74%	–
O=C1COc2ccc(-c3cc(-c4ccc(Cl)cc4)c4c(n3)-c3ccccc3OC4)cc2N1	–	inactive
CCCCCNC(=O)c1ccc2c(c1)ncn2-c1cccc(C)c1	inactive: -21.2%	–
Cc1cccc(C(=O)Nc2nnc(S(=O)(=O)N(C)Cc3ccc(Cl)cc3)s2)c1	inactive: 7.18%	–
CN(Cc1ccccc1)C(=O)C1CCN(S(=O)(=O)c2ccc3c(c2)oc(=O)n3C)CC1	–	inactive
CCOC(=O)CNC(=O)CSc1cn(CC(=O)N2CCCCCC2)c2ccccc12	inactive: -3.52%	–
CSc1nc(Nc2ccc(C)cc2C)cc(-c2ccccc2)n1	inactive: 5.35%	–
COC(=O)c1cc2c(cc1NC(=O)c1cnn(-c3ccccc3)c1-n1cccc1)OCO2	–	inactive
N#Cc1nc(-c2ccc(COc3ccccc3)o2)oc1NCc1cccnc1	inactive: 1.75%	–
COc1cccc(C2CC(=O)Nc3cc(OC)c(OC)c(OC)c32)c1OC(C)C (centres undefined)	–	inactive
COc1cc(CNC(=O)c2sc3ncccc3c2-n2cccc2)cc(OC)c1OC	inactive: -0.634%	–
COc1ccc(NC(=O)CN2C(=O)C(C)(C)c3ccccc32)cc1Cl	–	inactive
CSc1ccc(CCNC(=O)C2=C(C)C(=O)OC23CCCCC3)cc1	–	inactive
Cc1cccc(Cn2c(=O)n(CC3CCC(C(=O)NC(C)C)CC3)c(=O)c3sccc32)c1 (centres undefined)	inactive: -9.99%	–
Cc1cccc(N2CCN(C(=O)Cn3ncc4c3-c3cc(C)ccc3OC4)CC2C)c1 (centres undefined)	–	inactive
CCc1cccc(CC)c1NC(=O)c1c(C)oc2ccc(O)c(CN3CCN(C)CC3)c12	inactive: 2.82%	–
Cc1nc(N2CCCC2)c2c(C(=O)N3CCN(c4ccc(F)cc4)CC3)c(C)oc2n1	inactive: 4.29%	–
Cc1ccc(-c2nnc(Nc3ccc(Br)cc3)c3ccccc23)cc1S(=O)(=O)NCC1CCCO1 (centres undefined)	inactive: 0.867%	–
COC(=O)c1ccc(OCC2c3cc(OC)c(OC)cc3CCN2C(=O)c2ccccc2C)cc1 (centres undefined)	–	inactive
Cc1ccc(OCC(=O)N(Cc2ccc(Cl)cc2)Cc2ccco2)cc1C	inactive: -5.5%	–

SMILES	activity change, negative = inhibition	outcome
CCOc1ccc(NC(=O)c2cc3c(C)nn(-c4ccccc4)c3s2)cc1	inactive: -22.5%	–
CCOc1ccc(C2CC(=O)NC(NC(=O)c3ccc(C)cc3)=N2)cc1 (centres undefined)	inactive: -6.13%	–
COc1cccc(-c2nc(SCC(=O)NCC3CCCO3)c(-c3ccc(C)cc3)[nH]2)c1 (centres undefined)	inactive: 1.11%	–
COc1ccc(NC(=O)Cn2c(=O)n(CCC(C)C)c(=O)c3cccnc32)cc1Cl	inactive: 0.523%	–
Cc1cc(C)cc(NC(=O)c2cc(C)nc3c2c(C)nn3-c2ccccc2)c1	inactive: 3.64%	–
Cc1ccc(Cn2c(C(=O)O)c(CNC3CCCCC3)c3ccc(C)cc32)cc1	–	inactive
CCN(C(=O)c1cc2c(=O)oc3ccccc3c2s1)c1ccc(C)c(C)c1	–	inactive
Cc1cccc(Cn2cc(/C=C(/C#N)C(=O)Nc3cccc(Cl)c3)c3ccccc32)c1	inactive: -3.11%	–
CCCOc1ccc(NC(=O)CC2C(=O)N(c3ccccc3)C(=O)N2Cc2ccc(F)cc2)cc1 (centres undefined)	inactive: -17.9%	–
Cc1ccccc1Nc1cc(C(=O)NC2CCCC2)c2ccccc2n1	inactive: -4.35%	–
COc1ccc(NC(=O)c2ccc3c(=O)n4nc(Nc5ccccc5C)sc4nc3c2)cc1Cl	inactive: -7.29%	–
C[C@]1(CO)CN(c2cc(C(=O)Nc3ccc4c(c3)-c3c(c(C(N)=O)nn3-c3ccc(F)cc3)CC4)c(Cl)cn2)C[C@@]1(C)CO	inactive: -0.418%	–
CC(C)NC(=O)C1CCC(Cn2c(=O)c3sccc3n(CC(=O)N3CCCC3)c2=O)CC1 (centres undefined)	inactive: 16.6%	–
Cc1ccccc1C(=O)Nc1ccccc1OCc1cc(=O)n2ccccc2n1	inactive: 3.62%	–
CCOc1ccccc1NC(=O)Cn1c(=O)n(Cc2nc(C)no2)c(=O)c2ccccc21	inactive: -21.3%	–
Cc1ccc(C(=O)NCC(c2ccc3c(c2)OCO3)N2CCN(c3ccc(F)cc3)CC2)cc1 (centres undefined)	inactive: 5.51%	–
Clc1ccccc1CNc1ncnc2c1nc1n2CCCC1	inactive: -0.613%	–
Cc1cccc(-c2nc(S(=O)(=O)c3ccc(Cl)cc3)c(N3CCCCCC3)o2)c1	inactive: 2.69%	–
Cc1n[nH]c(C)c1Cc1sc2c(c1C(=O)N1C[C@H](O)CO1)c(=O)n(C)c(=O)n2CC(C)C	inactive: -0.101%	–
CCOc1ccc(CCNC(=O)c2c(C)oc3ncn(CC(C)C)c(=O)c23)cc1	inactive: 10.6%	–
Cc1cccc(CS(=O)(=O)Cc2ccc(C(=O)NCc3ccccc3)o2)c1	inactive: -10.3%	–
CCOc1ccccc1CNC(=O)c1nc(-c2ccc(Cl)cc2)n2c1CCCCC2	inactive: -11.6%	–
CCN(CC)c1nc2c(S(=O)(=O)c3ccccc3)nnn2c2ccc(Cl)cc12	inactive: -5.55%	–
CCOc1ccc(N(C)S(=O)(=O)c2cc(-c3cc(C)no3)ccc2OC)cc1	–	inactive

SMILES	activity change, negative = inhibition	outcome
Cc1ccc(CNC(=O)CN(C)S(=O)(=O)c2ccc3c(c2)c(=O)n(C)c(=O)n3C)cc1	–	inactive
Cc1cccc(NC(=O)C2CCCN(S(=O)(=O)c3ccc4c(c3)oc(=O)n4C)C2)c1C (centres undefined)	inactive: 53.8%	–
COC(=O)c1c(NC(=O)COc2ccc(C)cc2Br)sc2c1CCCC2	inactive: 9.53%	–
CCc1ccccc1NC(=O)CN1C(=O)C2CCCN2c2ccc(S(=O)(=O)N(CC)CC)cc21 (centres undefined)	inactive: 4.4%	–
COc1cccc(N2C(=O)C(CC(=O)Nc3ccccc3)N(CCc3sccc3C)C2=O)c1 (centres undefined)	inactive: -4.91%	–
CCOC(=O)C(CC)Sc1ncnc2c1c(-c1ccccc1)cn2-c1ccc(OC)cc1 (centres undefined)	inactive: -6.54%	–
Cc1c(CNC2CCC(C)CC2)c(C(=O)O)c(C)n1Cc1ccc(Cl)cc1 (centres undefined)	inactive: -1.51%	–
Cc1cc(C)c(OCC(=O)N(Cc2ccc(N(C)C)cc2)CC2CCCO2)c(C)c1 (centres undefined)	inactive: 11.2%	–
Cc1cc(=O)n(CC(=O)N2CCCc3ccccc32)c2c1c(C)nn2-c1cccc(F)c1	inactive: 2.35%	–
Cc1ccc(C)c(N(C)C(=O)c2cc3c(s2)-c2ccccc2OC3)c1	–	inactive
CCn1c(=O)c2cc(C(=O)NCc3ccc(F)cc3Cl)sc2c2ccccc21	inactive: 1.05%	–
O=C(CSc1nnc(-c2ccccc2)c(-c2ccccc2)n1)NCCc1ccccc1	inactive: -2.8%	–
O=C(NCCc1ccc(F)cc1)C(=O)NCC(c1cccs1)S(=O)(=O)c1ccc(Cl)cc1 (centres undefined)	inactive: 1.88%	–
CCS(=O)(=O)N1CC(=O)N(c2ccc(Cl)cc2C)C(C)(C(=O)NC2CCCCC2)C1 (centres undefined)	inactive: -4.61%	–
COc1ccc2c(C)c(CCC(=O)NCCc3ccc(OC)c(OC)c3)c(=O)oc2c1	inactive: -9.67%	–
COc1ccc(C(=O)Nc2nnc(SCc3cc(=O)c4cccc(F)c4[nH]3)s2)cc1	inactive: 0.919%	–
Cn1c(=O)c2c(nc(NCCCCO)n2Cc2ccccc2Cl)n(C)c1=O	inactive: -2.37%	–
CN1C(=O)CC(C(=O)Nc2ccc(C(=O)O)cc2)SC1=Nc1ccc(Cl)cc1 (centres undefined)	–	inactive
CCCCOC(=O)c1ccc(OC(=O)c2sc3ncn(Cc4cccc(F)c4)c(=O)c3c2C)cc1	inactive: 4.63%	–
CCC(C)NC(=O)Cn1c(=O)n(CCCCCC(=O)Nc2ccccc2)c(=O)c2sccc21 (centres undefined)	inactive: -6.47%	–
CCCN(C(=O)Cc1nc(-c2ccc(OC)cc2)no1)c1ccccc1C	inactive: -19.4%	–
CCc1cccc(C)c1NC(=O)CCCn1c(C)c2cnn(-c3ccccc3)c(=O)c2c1C	inactive: -17%	–
